Experimental data from the supplement of paper PMC8728848.
This is one part of the list.

Key:
Assay in all cases: glycan array binding signal (z-score within array); higher = stronger binding
Conditions in all cases: glycan notation: IUPAC condensed, linker removed
[1] = target: Fuc(a1-3)[Gal(b1-4)]GlcNAc
Method in brief: (§1)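 Glycan array data were curated from 3228 arrays in the Consortium for Functional Glycomics database and kept only where the protein sequence was available. Glycan names were converted to IUPAC-condensed notation, and columns mapping to the same glycan were averaged. The binding signal is a within-array Z-score, averaged across arrays of the same protein sequence at different concentrations or buffers and across linkers. Negative Z-scores can be read as non-binding.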

[2] = target: Fuc(a1-3)[Gal(b1-4)]GlcNAc(b1-4)Gal(b1-4)[Fuc(a1-3)]GlcNAc
Method in brief: as §1

[3] = target: Fuc(a1-3)[Gal(b1-4)]GlcNAc(b1-4)Gal(b1-4)[Fuc(a1-3)]GlcNAc(b1-4)Gal(b1-4)[Fuc(a1-3)]GlcNAc
Method in brief: as §1

[4] = target: Fuc(a1-3)[Gal3S(b1-4)]GlcNAc
Method in brief: as §1

[5] = target: Fuc(a1-3)[GalNAc(b1-4)]GlcNAc
Method in brief: as §1

[6] = target: Fuc(a1-4)GlcNAc
Method in brief: as §1

[7] = target: Fuc(b1-3)GlcNAc
Method in brief: as §1

[8] = target: Gal(a1-2)Gal
Method in brief: as §1

[9] = target: Gal(a1-3)Gal
Method in brief: as §1

[10] = target: Gal(a1-3)Gal(b1-3)GlcNAc
Method in brief: as §1

[11] = target: Gal(a1-3)Gal(b1-4)Glc
Method in brief: as §1

[12] = target: Gal(a1-3)Gal(b1-4)GlcNAc
Method in brief: as §1

[13] = target: Gal(a1-3)Gal(b1-4)[Fuc(a1-3)]GlcNAc
Method in brief: as §1

[14] = target: Gal(a1-3)GalNAc
Method in brief: as §1

[15] = target: Gal(a1-3)[Gal(a1-4)]Gal(b1-4)GlcNAc
Method in brief: as §1

[16] = target: Gal(a1-4)Gal(b1-4)Glc
Method in brief: as §1

[17] = target: Gal(a1-4)Gal(b1-4)GlcNAc
Method in brief: as §1

[18] = target: Gal(a1-4)GlcNAc
Method in brief: as §1

[19] = target: Gal(a1-6)Glc
Method in brief: as §1

[20] = target: Gal(b1-2)Gal
Method in brief: as §1

[21] = target: Gal(b1-3)Gal
Method in brief: as §1

[22] = target: Gal(b1-3)GalNAc
Method in brief: as §1

[23] = target: Gal(b1-3)GalNAc(b1-3)Gal(a1-4)Gal(b1-4)Glc
Method in brief: as §1

[24] = target: Gal(b1-3)GalNAc(b1-4)Gal(b1-4)Glc
Method in brief: as §1

[25] = target: Gal(b1-3)GalNAc(b1-4)[Neu5Ac(a2-3)]Gal(b1-4)Glc
Method in brief: as §1

[26] = target: Gal(b1-3)GlcNAc
Method in brief: as §1

[27] = target: Gal(b1-3)GlcNAc(b1-3)Gal(b1-4)Glc
Method in brief: as §1

[28] = target: Gal(b1-3)GlcNAc(b1-3)Gal(b1-4)GlcNAc
Method in brief: as §1

[29] = target: Gal(b1-3)[Fuc(a1-4)]GlcNAc
Method in brief: as §1

[30] = target: Gal(b1-3)[Fuc(a1-4)]GlcNAc(b1-3)Gal(b1-4)GlcNAc
Method in brief: as §1

[31] = target: Gal(b1-3)[Fuc(a1-4)]GlcNAc(b1-3)Gal(b1-4)[Fuc(a1-3)]GlcNAc
Method in brief: as §1

[32] = target: Gal(b1-3)[GlcNAc(b1-6)]GalNAc
Method in brief: as §1

[33] = target: Gal(b1-3)[Neu5Ac(a2-6)]GalNAc
Method in brief: as §1

[34] = target: Gal(b1-3)[Neu5Ac(a2-6)]GlcNAc(b1-6)Gal(b1-4)Glc
Method in brief: as §1

[35] = target: Gal(b1-3)[Neu5Ac(b2-6)]GalNAc
Method in brief: as §1

[36] = target: Gal(b1-4)GalNAc(a1-3)[Fuc(a1-2)]Gal(b1-4)GlcNAc
Method in brief: as §1

[37] = target: Gal(b1-4)GalNAc(b1-3)[Fuc(a1-2)]Gal(b1-4)GlcNAc
Method in brief: as §1

[38] = target: Gal(b1-4)Glc
Method in brief: as §1

[39] = target: Gal(b1-4)Glc6S
Method in brief: as §1

[40] = target: Gal(b1-4)GlcNAc
Method in brief: as §1

[41] = target: Gal(b1-4)GlcNAc(b1-2)Man(a1-3)[Gal(b1-4)GlcNAc(b1-2)Man(a1-6)]Man(b1-4)GlcNAc(b1-4)GlcNAc
Method in brief: as §1

[42] = target: Gal(b1-4)GlcNAc(b1-3)Gal(b1-4)Glc
Method in brief: as §1

[43] = target: Gal(b1-4)GlcNAc(b1-3)Gal(b1-4)GlcNAc
Method in brief: as §1

[44] = target: Gal(b1-4)GlcNAc(b1-3)Gal(b1-4)GlcNAc(b1-3)Gal(b1-4)GlcNAc
Method in brief: as §1

[45] = target: Gal(b1-4)GlcNAc(b1-3)Gal(b1-4)[Fuc(a1-3)]GlcNAc(b1-3)Gal(b1-4)[Fuc(a1-3)]GlcNAc
Method in brief: as §1

[46] = target: Gal(b1-4)GlcNAc(b1-3)GalNAc
Method in brief: as §1

[47] = target: Gal(b1-4)GlcNAc(b1-3)[Gal(b1-4)GlcNAc(b1-6)]GalNAc
Method in brief: as §1

[48] = target: Gal(b1-4)GlcNAc(b1-6)Gal(b1-4)GlcNAc(b1-6)GalNAc
Method in brief: as §1

[49] = target: Gal(b1-4)GlcNAc(b1-6)GalNAc
Method in brief: as §1

[50] = target: Gal(b1-4)GlcNAc(b1-6)[Gal(b1-3)]GalNAc
Method in brief: as §1

[51] = target: Gal3S(b1-3)GalNAc
Method in brief: as §1

[52] = target: Gal3S(b1-3)GlcNAc
Method in brief: as §1

[53] = target: Gal3S(b1-3)[Fuc(a1-4)]GlcNAc
Method in brief: as §1

[54] = target: Gal3S(b1-4)Glc
Method in brief: as §1

[55] = target: Gal3S(b1-4)Glc6S
Method in brief: as §1

[56] = target: Gal3S(b1-4)GlcNAc
Method in brief: as §1

[57] = target: Gal3S(b1-4)GlcNAc6S
Method in brief: as §1

[58] = target: Gal3S6S(b1-4)GlcNAc
Method in brief: as §1

[59] = target: Gal3S6S(b1-4)GlcNAc6S
Method in brief: as §1

[60] = target: Gal4S(b1-4)GlcNAc
Method in brief: as §1

[61] = target: Gal4S6S(b1-4)GlcNAc
Method in brief: as §1

[62] = target: Gal6S(b1-4)Glc
Method in brief: as §1

[63] = target: Gal6S(b1-4)Glc6S
Method in brief: as §1

[64] = target: Gal6S(b1-4)GlcNAc
Method in brief: as §1

[65] = target: GalNAc(a1-3)Gal
Method in brief: as §1

[66] = target: GalNAc(a1-3)GalNAc
Method in brief: as §1

[67] = target: GalNAc(b1-3)Gal(a1-4)Gal(b1-4)GlcNAc
Method in brief: as §1

[68] = target: GalNAc(b1-3)GalNAc
Method in brief: as §1

[69] = target: GalNAc(b1-4)GlcNAc
Method in brief: as §1

[70] = target: Glc(a1-4)Glc
Method in brief: as §1

[71] = target: Glc(a1-6)Glc(a1-6)Glc
Method in brief: as §1

[72] = target: Glc(b1-4)Glc
Method in brief: as §1

[73] = target: Glc(b1-6)Glc
Method in brief: as §1

[74] = target: GlcA(b1-3)Gal
Method in brief: as §1

[75] = target: GlcA(b1-6)Gal
Method in brief: as §1

[76] = target: GlcNAc(a1-3)Gal(b1-4)GlcNAc
Method in brief: as §1

[77] = target: GlcNAc(a1-6)Gal(b1-4)GlcNAc
Method in brief: as §1

[78] = target: GlcNAc(b1-2)Gal(b1-3)GalNAc
Method in brief: as §1

[79] = target: GlcNAc(b1-2)Man(a1-3)[GlcNAc(b1-2)Man(a1-6)]Man(b1-4)GlcNAc(b1-4)GlcNAc
Method in brief: as §1

[80] = target: GlcNAc(b1-3)Gal
Method in brief: as §1

[81] = target: GlcNAc(b1-3)Gal(b1-3)GalNAc
Method in brief: as §1

[82] = target: GlcNAc(b1-3)Gal(b1-4)Glc
Method in brief: as §1

B1: DCIR (Homo sapiens), Q9UMR7 (protein)
chain: MTSEITYAEVRFKNEFKSSGINTASSAASKERTAPHKSNTGFPKLLCASLLIFFLLLAISFFIAFVIFFQKYSQLLEKKTTKELVHTTLECVKKNMPVEETAWSCCPKNWKSFSSNCYFISTESASWQDSEKDCARMEAHLLVINTQEEQDFIFQNLQEESAYFVGLSDPEGQRHWQWVDQTPYNESSTFWHPREPSDPNERCVVLNFRKSPKRWGWNDVNCLGPQRSVCEMMKIHL
glycan array binding signal (z-score) [1]: -0.434
glycan array binding signal (z-score) [2]: 0.076
glycan array binding signal (z-score) [3]: -0.494
glycan array binding signal (z-score) [4]: -0.407
glycan array binding signal (z-score) [5]: -0.428
glycan array binding signal (z-score) [6]: -0.295
glycan array binding signal (z-score) [7]: -0.551
glycan array binding signal (z-score) [8]: -0.512
glycan array binding signal (z-score) [9]: -0.425
glycan array binding signal (z-score) [10]: -0.435
glycan array binding signal (z-score) [11]: -0.429
glycan array binding signal (z-score) [12]: 0.183
glycan array binding signal (z-score) [13]: -0.194
glycan array binding signal (z-score) [14]: -0.433
glycan array binding signal (z-score) [15]: -0.405
glycan array binding signal (z-score) [16]: -0.507
glycan array binding signal (z-score) [17]: 0.036
glycan array binding signal (z-score) [18]: -0.095
glycan array binding signal (z-score) [19]: -0.459
glycan array binding signal (z-score) [20]: 0.027
glycan array binding signal (z-score) [21]: 0.012
glycan array binding signal (z-score) [22]: -0.176
glycan array binding signal (z-score) [23]: -0.459
glycan array binding signal (z-score) [24]: -0.413
glycan array binding signal (z-score) [25]: -0.099
glycan array binding signal (z-score) [26]: -0.477
glycan array binding signal (z-score) [27]: -0.086
glycan array binding signal (z-score) [28]: -0.506
glycan array binding signal (z-score) [29]: -0.359
glycan array binding signal (z-score) [30]: -0.114
glycan array binding signal (z-score) [31]: -0.316
glycan array binding signal (z-score) [32]: 0.239
glycan array binding signal (z-score) [33]: 0.192
glycan array binding signal (z-score) [34]: -0.265
glycan array binding signal (z-score) [35]: -0.372
glycan array binding signal (z-score) [36]: -0.129
glycan array binding signal (z-score) [37]: -0.582
glycan array binding signal (z-score) [38]: -0.458
glycan array binding signal (z-score) [39]: 0.19
glycan array binding signal (z-score) [40]: -0.367
glycan array binding signal (z-score) [41]: 4.96
glycan array binding signal (z-score) [42]: -0.114
glycan array binding signal (z-score) [43]: 0.02
glycan array binding signal (z-score) [44]: -0.49
glycan array binding signal (z-score) [45]: -0.369
glycan array binding signal (z-score) [46]: 0.096
glycan array binding signal (z-score) [47]: -0.4
glycan array binding signal (z-score) [48]: 0.07
glycan array binding signal (z-score) [49]: -0.428
glycan array binding signal (z-score) [50]: -0.161
glycan array binding signal (z-score) [51]: -0.205
glycan array binding signal (z-score) [52]: 0.291
glycan array binding signal (z-score) [53]: 0.626
glycan array binding signal (z-score) [54]: -0.426
glycan array binding signal (z-score) [55]: 3.94
glycan array binding signal (z-score) [56]: 0.121
glycan array binding signal (z-score) [57]: 5.68
glycan array binding signal (z-score) [58]: 2.62
glycan array binding signal (z-score) [59]: 7.43
glycan array binding signal (z-score) [60]: -0.384
glycan array binding signal (z-score) [61]: 1.45
glycan array binding signal (z-score) [62]: 0.036
glycan array binding signal (z-score) [63]: 4.52
glycan array binding signal (z-score) [64]: -0.322
glycan array binding signal (z-score) [65]: -0.365
glycan array binding signal (z-score) [66]: -0.368
glycan array binding signal (z-score) [67]: -0.239
glycan array binding signal (z-score) [68]: 0.178
glycan array binding signal (z-score) [69]: -0.144
glycan array binding signal (z-score) [70]: -0.309
glycan array binding signal (z-score) [71]: 0.048
glycan array binding signal (z-score) [72]: -0.1
glycan array binding signal (z-score) [73]: -0.359
glycan array binding signal (z-score) [74]: -0.076
glycan array binding signal (z-score) [75]: -0.391
glycan array binding signal (z-score) [76]: -0.522
glycan array binding signal (z-score) [77]: -0.208
glycan array binding signal (z-score) [78]: -0.358
glycan array binding signal (z-score) [79]: -0.344
glycan array binding signal (z-score) [80]: -0.245
glycan array binding signal (z-score) [81]: -0.423
glycan array binding signal (z-score) [82]: -0.005
